# Out of some 310,000 compounds screened, about 2,200 (0.71%) showed an effect of 50% or more. Effects have a minus sign here. Some of the results follow.
# Target: human ether-à-go-go-related gene (hERG) potassium channel (human, UniProt Q12809)
# Test: primary screen, population patch clamp on CHO cells stably expressing hERG
# human ether-à-go-go-related gene (hERG) potassium channel, sequence (Q12809 whole entry, looked up): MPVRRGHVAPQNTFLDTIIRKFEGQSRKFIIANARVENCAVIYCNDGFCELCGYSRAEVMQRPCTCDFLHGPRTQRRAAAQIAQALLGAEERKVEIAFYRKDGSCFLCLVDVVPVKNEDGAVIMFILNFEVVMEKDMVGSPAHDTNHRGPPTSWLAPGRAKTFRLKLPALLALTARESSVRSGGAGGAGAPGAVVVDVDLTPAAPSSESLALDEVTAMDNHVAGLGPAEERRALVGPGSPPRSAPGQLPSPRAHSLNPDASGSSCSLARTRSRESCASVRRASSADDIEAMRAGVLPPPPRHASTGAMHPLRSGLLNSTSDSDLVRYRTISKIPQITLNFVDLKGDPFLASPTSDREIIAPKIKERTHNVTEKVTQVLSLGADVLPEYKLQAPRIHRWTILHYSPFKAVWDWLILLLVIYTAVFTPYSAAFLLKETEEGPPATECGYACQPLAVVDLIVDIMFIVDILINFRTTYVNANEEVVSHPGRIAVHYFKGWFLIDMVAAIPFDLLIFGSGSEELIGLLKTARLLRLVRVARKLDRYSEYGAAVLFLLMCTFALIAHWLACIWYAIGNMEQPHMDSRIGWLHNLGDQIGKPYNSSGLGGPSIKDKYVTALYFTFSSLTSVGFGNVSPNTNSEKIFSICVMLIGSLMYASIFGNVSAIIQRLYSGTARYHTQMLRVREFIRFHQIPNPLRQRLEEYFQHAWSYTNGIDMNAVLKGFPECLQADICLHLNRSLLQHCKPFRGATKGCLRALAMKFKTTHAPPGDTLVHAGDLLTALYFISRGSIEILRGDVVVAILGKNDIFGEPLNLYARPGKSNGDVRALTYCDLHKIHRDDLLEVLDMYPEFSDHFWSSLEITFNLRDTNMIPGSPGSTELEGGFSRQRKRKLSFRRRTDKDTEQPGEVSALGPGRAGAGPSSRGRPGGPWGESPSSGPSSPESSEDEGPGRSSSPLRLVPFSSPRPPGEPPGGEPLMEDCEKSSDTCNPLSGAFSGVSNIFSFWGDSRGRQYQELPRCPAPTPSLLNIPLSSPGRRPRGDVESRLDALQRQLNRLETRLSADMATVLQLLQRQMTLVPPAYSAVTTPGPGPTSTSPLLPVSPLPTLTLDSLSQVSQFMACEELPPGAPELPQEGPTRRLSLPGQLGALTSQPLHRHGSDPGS
row,SMILES,"hERG current change (%, negative = inhibition) at 1uM"
1,O=C(Cn1cncn1)N/N=C/c1ccncc1,6.34%
2,O=[N+]([O-])c1cc(C(F)(F)F)ccc1NCCCCNS(=O)(=O)c1ccc(Cl)cc1,2.8%
3,S=C(Nc1cccnc1)NC1CCCC1,11%
4,CC1CCN(C(=O)COC(=O)C2CCN(S(=O)(=O)c3ccc4c(c3)OCCO4)CC2)CC1,2.4%
5,C[C@H](NC(=O)c1nc[nH]c1C(=O)N(C)Cc1ccccc1)c1ccccc1,10.6%
6,Cc1ccc(NC(=O)COC(=O)/C=C/c2ccco2)cc1S(=O)(=O)N(C)C,0.273%
7,Cc1nn2c(=O)nc3sc4c(c3c2[nH]c1=O)CCCC4,11%
8,O=C(c1cccc(S(=O)(=O)N2CCCCC2)c1)N1CCCCC1,9.44%
9,Cc1ccc(-c2cc(C(=O)O)c3ccccc3n2)s1,9.63%
10,COC(=O)c1ccc(COc2ncnc3sccc23)cc1,9.93%
11,C=CCNc1nc(-c2ccccc2)nc(-n2ccnc2)n1,-6.16%
12,Cc1ccc(O)c(Cn2nnc3ccccc32)c1,18.2%
13,COCCNc1cnn(-c2ccccc2)c(=O)c1Cl,15.7%
14,CC1CCCC(C)N1C(=O)COC(=O)COc1ccccc1C#N (centres unmarked),10.2%
15,COc1cccc(CNC(=O)COC(=O)c2nc(Cl)c(Cl)c(Cl)c2Cl)c1,7.37%
16,O=[N+]([O-])c1nn(-c2ccc(Cl)cc2)n(O)c1=NCc1ccccc1,11.5%
17,O=C(Nc1ccc(Cl)c(Cl)c1)Nc1cc(C(=O)N2CCOCC2)ccc1N1CCCCC1,11.5%
18,CC(C)OC(=O)CSc1nnc(Cc2ccccc2)n1CC1CCCO1 (centres unmarked),10.7%
19,Cc1ccc(CN(C)C(=O)c2cc(COc3cccc(C(F)(F)F)c3)on2)o1,-8.96%
20,CC(C)(CO)NS(=O)(=O)c1ccc2c(c1)C(=NO)c1cc(S(=O)(=O)NC(C)(C)CO)ccc1-2,6.72%
21,O=C(O)c1ccc(Cl)c(S(=O)(=O)N(Cc2ccccc2)c2ccc(Cl)cc2)c1,20%
22,COc1ccc(C2=Nn3c(nnc3-c3ccco3)SC2)cc1,-16.7%
23,O=C(NCCc1ccccc1)c1cc(-c2ccco2)on1,-6.42%

row,SMILES,"hERG current change (%, negative = inhibition) at 1uM"
1,O=C(NCc1cccnc1)c1cc(-c2ccccc2)on1,1.78%
2,CCN(CC(=O)Nc1ccccc1OC)C(=O)CCc1ccccc1,9.39%
3,CC1CN(CC(O)COC2CCC(C(C)(C)C)CC2)CC(C)O1.Cl (centres unmarked),13%
4,CC(=O)Nc1ccc(SCC(=O)Nc2oc(C)c3c(C)n[nH]c(=O)c23)cc1,3.74%
5,O=C(c1c(F)cccc1F)N1CCCC(c2nc(-c3ccc(F)cc3)no2)C1 (centres unmarked),2.23%
6,COc1cc(C(C)=O)ccc1OCc1cc(C(=O)N2CCSCC2)no1,31.5%
7,COc1ccc(NC(=O)COC(=O)Cn2cnc3ccccc3c2=O)cc1OC,10.9%
8,c1cnc(Nc2nc(-c3ccc4ccccc4c3)cs2)nc1,11.6%
9,COC(=O)/C=c1\[nH]c2nnc(C)n2c1=O,11.3%
10,COc1cc([N+](=O)[O-])cc2cc(C(=O)N3CCN=C3c3ccccc3)c(=O)oc12,10.7%
11,COc1ccc(/C=C2/SC(=O)NC2=O)cc1,8.64%
12,O=C(NCc1ccccc1)c1cncc(Br)c1,3.55%
13,Cc1cccc(C)c1NC(=O)/C(=C/c1ccco1)c1ccccc1,1.83%
14,CC(C)(C)SCCNC(=O)CN1C(=O)c2cccc3cccc1c23,12.7%
15,Cc1cccc(NC(=S)NNC(=O)c2ccc(Br)o2)c1,13.8%
16,Cc1ccc(NC(=S)N2CCSC2c2cccs2)cc1 (centres unmarked),7.06%
17,Cc1nonc1OCCNCc1c(C(=O)N(C)C)nc2ccc(Cl)cn12,12.7%
18,CN1CCN(C(=O)CSc2nnc(COc3ccc(Cl)cc3)o2)CC1,10.7%
19,Cc1cccc2cc(CN(Cc3ccc(F)cc3)Cc3nnnn3C3CCCC3)c(=O)[nH]c12,-3.82%
20,Cn1c(=O)c(=O)n(C)c2cc(S(=O)(=O)N3CCCC3C(=O)Nc3ccccc3F)ccc21 (centres unmarked),-13.2%
21,COc1cc(C(=O)Nc2ccc(C(N)=O)cc2)c([N+](=O)[O-])cc1OC,15.6%
22,O=C(CC(NC(=O)c1ccccc1Cl)c1ccccc1)NC1=NCCS1 (centres unmarked),5.19%
23,CNc1n[nH]c(=S)s1,16.1%

row,SMILES,"hERG current change (%, negative = inhibition) at 1uM"
1,CN1CCN(c2ccc(C(=O)c3ccccc3)cc2[N+](=O)[O-])CC1,-4.33%
2,CCC(=O)c1ccc(OC(=O)N2CCOCC2)cc1,8.03%
3,COc1cc2c(cc1OC)/C(=C/c1ccc(Cl)cc1)C(=O)OC2,-5.29%
4,O=C(CSc1nccn1Cc1ccco1)Nc1ccccc1C(F)(F)F,9.76%
5,CCc1cc2c(=O)c(-c3cscn3)coc2c(CN(C)C)c1O,15.2%
6,COc1ccc(/C=C2\CCC(C3CCCC3)C2=O)cc1 (centres unmarked),14.8%
7,O=C(CNC(=O)c1ccco1)OCC(=O)c1ccc(Br)cc1,15.1%
8,Br.CCc1nnc2n1N=C(c1cccc([N+](=O)[O-])c1)CS2,-1.09%
9,O=C(N/N=C\c1ccc(-c2ccccc2[N+](=O)[O-])o1)C1COc2ccccc2O1 (centres unmarked),7.03%
10,O=C(CCc1ccccc1)NNC(=O)c1ccc(Cl)cc1,10.9%
11,Cc1ccc(S(=O)(=O)NC(C)C(c2cccs2)N2CCN(C)CC2)cc1 (centres unmarked),2.95%
12,Cn1nnnc1SCC(=O)c1ccc(Br)s1,12.8%
13,Cc1c(O)cc2n(c1=O)-c1ccccc1C2(C)C,10.6%
14,CC(=O)N1c2c(cc(Br)cc2S(=O)(=O)NCc2cccnc2)CC1C (centres unmarked),16.3%
15,Cc1ccc(-c2cc(-c3ccc(C)o3)nc(N)c2C#N)cc1,4.41%
16,Cc1ccc2c(c1)nnn2C1CCN(CC(=O)Nc2ccc3c(c2)OCCO3)CC1,-29.1%
17,CC(NC(=O)c1ccccc1SCC(=O)N1CCCC1)c1ccccc1 (centres unmarked),-18.6%
18,COc1ccc(NC(=O)CS(=O)(=O)c2ccc(F)cc2)cc1,10.6%
19,Cc1ccccc1CNc1ncnc2cc(Cl)ccc12,7.99%
20,CC(=O)c1cccc(NS(=O)(=O)c2csc(C(N)=O)c2)c1,17%
21,O=C(OCC(=O)N1CCN(C(=O)c2ccco2)CC1)c1cccc(F)c1,0.0396%
22,Fc1ccccc1/C=N/n1cc(-c2ccccc2)[nH]c1=S,11.9%
23,O=C(NCc1ccc(F)cc1Cl)C1CCN(S(=O)(=O)N2CCCCC2)CC1,0.909%

row,SMILES,"hERG current change (%, negative = inhibition) at 1uM"
1,CC1=C(C(=O)OC(C)(C)C)C(c2ccc(Br)cc2)NC(=O)N1CCCC(=O)O (centres unmarked),13.4%
2,Cc1cc(NC(=O)CSc2nnc(NCc3ccccc3)s2)no1,8.62%
3,C=C(C)Cn1c(SCC(=O)O)nc2c1c(=O)[nH]c(=O)n2C,4.13%
4,OC[C@H]1OC(O)[C@H](O)[C@@H](O)[C@H]1O (some centres unmarked),11.1%
5,COc1cc(NC(=O)COc2ccc(Cl)cc2)ccc1-c1cc2ccccc2oc1=O,15.3%
6,COc1ccc(-n2c(SCC(=O)N/N=C(\C)c3cccnc3)nc3ccccc3c2=O)cc1,8.92%
7,CCOCCOC(=O)c1[nH]c2c(c1C)C(=O)CC(c1cccs1)C2 (centres unmarked),-1.53%
8,CC(NC(=O)CCCN1C(=O)c2ccccc2C1=O)c1ccc2c(c1)CCCC2 (centres unmarked),14.7%
9,CC/C(=C/c1sc2ccc(C)cc2[n+]1CCCS(=O)(=O)[O-])SC,7.32%
10,N#C/C(=C\c1cccc(Cl)c1)c1n[nH]c(Cn2cncn2)n1,9.52%
11,CC(C)(C)C(=O)Nc1cc(C(F)(F)F)ccc1N1CCOCC1,15.1%
12,O=C(Nc1ccccc1O)c1ccc(Cl)cc1,7.12%
13,O=C(CCCSc1nc2ccccc2c(=O)[nH]1)c1ccccc1,-0.382%
14,CCOCCCNC(=O)C(c1ccc(OC)cc1)N(Cc1cccs1)C(=O)c1ccccc1O (centres unmarked),8.1%
15,Cc1ccc2nc(SCC(=O)O)nc(C)c2c1,-12.9%
16,CN=C(Nc1cccnc1)c1ccccc1,11.9%
17,CC(C)Cn1c(CN(Cc2ccccc2)Cc2ccccc2)nc2c1c(=O)n(C)c(=O)n2C,-7.94%
18,CC(/C=N/NC(=S)Nc1cccc(S(=O)(=O)N(C)C)c1)c1ccccc1 (centres unmarked),12.3%
19,Cc1cc(C)c2nc(-c3ccccn3)cc(C(=O)NCc3ccc(S(N)(=O)=O)cc3)c2c1,4.65%
20,OCC[C@H]1C[C@@H](O)[C@H](O)[C@]2(Cc3ccccc3CO2)O1,12.6%
21,CCOc1cc(NC(=S)NCCc2ccccc2)c(OCC)cc1NC(C)=O,3.76%
22,CCOC(=O)CC[NH3+].[Cl-],8.45%
23,CCC(c1nnc(SCC(=O)Nc2cccc(S(N)(=O)=O)c2)n1Cc1ccccc1)N(C)C (centres unmarked),8%

# Source: paper PMC4336329 (PLoS ONE, 2015)
